In all, about 33,000 sequences were measured (“E-score (-0.5 to 0.5)”: median about -0.011, highest 2% from about 0.28 on). The list shows a part of the results.
Each sequence was assayed against T1, Gcr1 (UniProt P07261) (assay: PBM E-score (8-mer binding enrichment) (E-score (-0.5 to 0.5)); higher = stronger / more preferred TF binding; most listed sequences are background and not binding sites). Conditions: protein concentration: 100 nM; construct: GST-full length.
T1 sequence: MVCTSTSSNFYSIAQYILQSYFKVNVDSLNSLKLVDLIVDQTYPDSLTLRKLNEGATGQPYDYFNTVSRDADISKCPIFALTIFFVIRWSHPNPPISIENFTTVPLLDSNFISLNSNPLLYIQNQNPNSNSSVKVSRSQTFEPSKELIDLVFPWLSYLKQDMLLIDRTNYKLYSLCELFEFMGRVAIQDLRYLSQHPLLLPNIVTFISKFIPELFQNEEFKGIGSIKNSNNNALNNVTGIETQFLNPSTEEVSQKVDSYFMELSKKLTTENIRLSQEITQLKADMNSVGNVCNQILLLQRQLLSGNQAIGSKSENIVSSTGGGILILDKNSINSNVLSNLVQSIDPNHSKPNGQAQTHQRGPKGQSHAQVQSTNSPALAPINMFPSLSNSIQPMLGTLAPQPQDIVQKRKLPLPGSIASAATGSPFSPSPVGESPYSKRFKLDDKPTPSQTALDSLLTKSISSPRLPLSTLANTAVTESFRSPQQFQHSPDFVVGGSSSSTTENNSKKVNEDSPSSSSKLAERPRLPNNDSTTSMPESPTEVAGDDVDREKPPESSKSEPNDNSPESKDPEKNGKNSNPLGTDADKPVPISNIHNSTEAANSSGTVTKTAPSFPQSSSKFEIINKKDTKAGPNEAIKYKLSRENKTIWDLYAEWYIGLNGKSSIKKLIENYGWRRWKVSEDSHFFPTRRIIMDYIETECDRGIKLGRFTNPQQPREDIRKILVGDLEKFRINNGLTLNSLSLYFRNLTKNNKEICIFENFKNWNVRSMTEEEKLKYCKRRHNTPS
How it was run: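 Masliner-normalised scans of fluorescent anti-GST signal were the basis for scoring. That signal came from GST-tagged yeast transcription factors applied at about 100-200 nM to double-stranded universal all-10-mer Agilent arrays on fresh or once-stripped slides. Each ungapped eight-base word, pooled with its reverse complement, received an E-score from the Universal PBM Analysis Suite.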

Sequence	PBM E-score
CCACCGCA	-0.218
TACATTCA	-0.00055
GCAGCATA	-0.0763
AGTTTCAT	0.116
ACGCAAAA	-0.0858
CCCCTACA	-0.159
GAAAAGCA	0.0861
CACCAGAC	0.00613
GATCGTGC	-0.19
CTTCGAAG	0.0307
ATGCTTAC	-0.202
GCACTGGC	-0.109
AACGGTAG	-0.023
ACTCGTCC	-0.119
GAGCACAA	-0.0302
CATGCGAC	-0.26
CAAATTTA	0.22
AATTGGAG	0.107
GCAAGCAA	-0.215
CCGCCGCC	0.0704
CGACCTCA	-0.113
CCCTACGA	-0.125
AAAAGTTT	0.139
ACGAGGAG	0.0149
AAGTGGGC	0.19

Sequence	PBM E-score
ATCAGCAT	0.136
ATGAACCA	-0.101
AATATACC	-0.0618
ACCATACC	0.0742
CCCAGAGA	0.113
CATGTGTC	-0.204
ATACCAAG	0.129
ACCACTCT	0.122
ACGTCGAC	0.0185
CAACATTA	0.0316
GCATAAGC	-0.137
CTGCCCAC	-0.101
AGACTCGG	-0.189
ACTCCTAC	-0.0219
CCCTAACC	0.0899
ACTGCAAA	-0.0564
TATGCTGA	-0.0029
CCGTGGAA	0.0996
CCTGGCAG	-0.126
CGAGCCCG	-0.0991
ACTTATCG	-0.12
CCGGTTCC	0.122
TGCGAGAA	0.0253
CCTACTAA	0.204
GCAGTGCA	-0.247

Sequence	PBM E-score
ACCACGGA	-0.146
ACTTTTCG	-0.0432
TTAGAAAA	0.0279
CTGAGCTA	-0.0113
TAACTGAA	0.144
CACTTGTA	-0.0592
CAGTATCA	0.0318
ATGCCACG	-0.0778
GTCAGCTA	-0.231
GTATGGCA	0.0292
ATTAACAG	0.194
ATATTGTG	-0.0532
CACACAAA	0.0777
GTGCGCGA	0.0278
CAGTTCAC	0.00709
AGAGGCAC	0.161
GCTTGGCA	-0.0659
TAAATATA	0.188
ACTGGCCT	-0.121
AAAGTGAC	-0.207
CCTAGTCA	-0.234
CTTCGAGA	-0.128
GTCAAAAA	0.144
GACAGTCC	-0.251
ACGACAAG	-0.127

Sequence	PBM E-score
CAGAGTAG	0.0147
ATGACATG	-0.0581
AGGTACGG	-0.174
ACAGGCGG	-0.078
ACGGCTGG	-0.253
CGCTGATA	-0.199
CTATGCTC	-0.0414
AAACGCTG	0.016
ATTAGGGA	0.128
GCCCACAC	0.133
AATAGGGG	0.215
CGCAGGAG	-0.0971
ACGGTAGT	-0.109
AAGGTGTC	0.0915
GTAACCAC	0.132
TGCGGCAA	-0.0141
AGAAAGAT	-0.134
CTTCCTTC	-0.00246
CATACTTC	-0.186
GCAGTAAA	-0.141
AGTTTTCC	-0.101
AGCTTAAC	-0.106
ATGCAGAA	0.175
ATATGTAG	0.0777
AAAACACG	0.128

Sequence	PBM E-score
CCAGCGGG	0.0339
GCTGGCTA	-0.259
ATTATTAC	0.177
CATGAATG	0.15
CCTAGGGC	-0.0655
ATGTGCAG	-0.162
CGAATACA	0.253
CCTTCTAA	-0.0438
ATATCATG	-0.0473
CGGAACAA	-0.0157
AAAACGGC	0.0677
AGCAAAAT	0.051
CGTGGGCC	-0.23
CTGGACGA	-0.0396
GTCACGAA	0.0893
CGGACAAA	-0.233
GGTGGCGA	-0.0473
CACATACC	-0.0696
GAACTTAC	-0.289
AGCTTCTC	0.25
CGGTCTTA	-0.196
AATGTTAC	-0.0346
AGTCGGTC	-0.106
AACGTTGT	0.0452
CGAAGACG	0.0533

Sequence	PBM E-score
TCCAAACA	0.135
CGCTTTTC	0.102
GACAAGAC	0.0539
CAGTGAGA	0.0173
ATACCTGG	0.0555
CGATGTGA	-0.0422
GTTTATGA	-0.129
CGTCTTAA	0.192
AGGGTACA	-0.0876
ACAGGGTC	0.0336
ATCTTGAA	0.0985
TAAGATAA	-0.0012
CTGTTGTC	-0.0893
TTCTTCAA	0.0922
AATCAGCC	-0.0813
CTCTGGCA	0.12
CTTTTACC	-0.0196
GGCGCCAC	0.253
CAGCTTCC	0.457
GTGGGAAC	0.253
CGCCGACG	0.0121
ACACCCCC	-0.242
CATCGATA	0.0219
CAGATTGC	-0.169
ACCGCCCT	-0.123

Sequence	PBM E-score
GGCGGGAA	0.0372
ACGACTAT	-0.216
CTCATCCC	-0.143
CACCTCAG	-0.0306
CAAGGCCA	-0.205
CGTGAGGC	-0.0867
AGGGATCG	-0.151
GGCGGACC	-0.182
CCCGTTGA	-0.059
GCCAGCAA	-0.00361
CTAAACAC	0.0567
ACGACTAA	-0.15
AAAGTAAG	-0.118
CATCGGGC	-0.136
TGGATACA	0.0302
CCCGTGTC	0.0263
CAGAGGAA	0.0251
CCATTCGC	0.0469
TGTCGTAA	-0.124
CGAAAAGC	0.0636
GCCAACTA	0.0299
ATTTAGTC	-0.0246
CGCGAGGA	-0.148
AAATAAGC	0.0516
ACTTGTAA	-0.0385

Sequence	PBM E-score
AATATGTC	0.0516
GCTGGTCC	-0.0587
ATCGTAAC	-0.0575
ACGGTGGG	0.116
CGGTACCG	-0.0587
GGCTTTTA	-0.0552
GATTCCGC	0.224
TCCAAGCA	-0.165
CACGGTCG	-0.217
CTGTCTAA	-0.108
TCTAGGCA	0.128
CACGCGAG	-0.213
GAGCAGAC	-0.093
AGAGGTGG	0.0606
AGTAAAGG	0.219
ACTAGGCC	-0.117
TGACAACA	-0.0143
CCGTAAGG	-0.0594
GTTAGATA	-0.0212
CTTGGGGA	0.0137
ACTCGCAT	-0.0648
CACATGCC	-0.234
CTTGCCAA	-0.0564
TTCAGGAA	0.189
AAAGACCA	-0.155

Sequence	PBM E-score
ATGACATC	0.0887
CCCTAGGG	-0.0596
CACCTCAA	0.0922
ATGAACGA	-0.0674
TGACCAAA	0.0367
ATTAGGCG	0.309
AATAATCT	-0.138
GGAACCTA	0.401
ACTGAATG	-0.0455
CGCCTACG	-0.00139
AATATCTA	-0.0219
ATTAAACA	-0.147
GAACCTCC	-0.0385
GGTGACGA	-0.118
CAGCTCCC	-0.00932
CGACTGAG	-0.0916
AGTGGAAT	0.39
CATTAACA	0.122
GAGTTGTA	0.0608
CCCCGCCG	0.0265
ATAACTTA	-0.0576
AACCGCAG	-0.0605
ACGACTCC	0.0392
CATCATGA	-0.0913
ACCGCTGC	-0.0963

Sequence	PBM E-score
CATTGTAA	-0.024
CACTGTTA	-0.0411
CGTTCCTC	-0.116
AACCGAGG	-0.198
CCTAACGC	0.00399
AGCTGAAT	0.136
CATCAGTA	-0.074
ACCACACA	0.0556
GGAGGGCC	0.0133
CTGACCTA	-0.107
ACAGCTGC	0.137
ATGATTGA	-0.00536
ATAACCTG	0.0173
AAATTGTT	0.0443
CTCGCTTA	-0.0713
ATCTGCCA	-0.0494
ATATGGTC	0.066
CCACGCAC	-0.137
ATACCTCG	0.0197
CCTATCGC	0.0835
AAGCGGGC	-0.0899
CCATAAGC	-0.135
AAGTCGCA	-0.0123
TATGTCAA	-0.0242
CCGATCCG	-0.124

Sequence	PBM E-score
AATCGCGA	-0.108
ATGGCGCC	0.343
AGACGGCA	-0.201
CACTGTAG	-0.115
ACTCGACC	-0.209
ATAGATAA	0.0925
AAGAGAGC	-0.276
CCGGTAAA	0.149
GGCAAGGA	-0.156
CAGCACTG	-0.19
AGACATTC	0.0235
CCAAAGAA	0.136
CAGACCAG	0.0694
CCTGTGCA	-0.0701
AGTCTAAT	0.105
GATTGACA	-0.0893
AGGGTCTG	-0.215
ACGAGCCA	-0.0923
GATTGACC	-0.122
GACTGATC	-0.154
AGCCATCG	-0.209
AAGCCCGC	0.144
GCCACAAC	0.246
CCACAGGC	-0.0205
AGAGCGCC	0.0412

Sequence	PBM E-score
AGTACCGA	-0.0864
CTATTCGA	-0.0452
CTTGCCGC	-0.061
CAAAGTCA	-0.0915
AGATGCAC	-0.0398
AAAAATGC	0.153
GGTTAGCA	-0.0601
CCGAGGTA	-0.0222
GAATTCAA	0.0565
GAAGCTTC	0.339
CGACCCAC	-0.0741
AATCTTCA	0.144
GTGGAGCA	-0.00069
AAGGGTAC	-0.0737
AACAAGTG	0.0405
AGGAGATC	0.0885
AGCCTTAA	-0.114
GAACGGAC	-0.105
AAGCATTG	-0.079
ACACTGAT	-0.0612
GTGTTTGA	0.0925
GGAGCCGA	0.241
CCCAGTTC	0.0921
AAGTATTG	-0.0395
TATTTGCA	0.162

Sequence	PBM E-score
TGTCCACA	0.109
CAGCACTA	-0.194
GCTCCGAA	0.0352
AGTATTCC	-0.0142
AGCCGGGG	-0.0742
CACATAGC	-0.125
GAGTAGTA	0.0471
CCAGTACC	0.0669
CCTACCCG	0.00295
ACTATTTA	0.293
AATCCGCG	-0.164
CGATCGAA	-0.193
ATGGCGCA	-0.122
AACTATCC	-0.0875
AATTCTGT	0.121
AACAATTA	0.0853
GGTGGGAC	-0.0594
GCCGAACC	0.0219
CATCTGAC	-0.242
CTACTTAC	0.0789
CAATGGCA	-0.159
AGCTATGC	-0.269
CGTTACAC	-0.0307
CTACGCAC	-0.131
ATTACACC	0.0915

Sequence	PBM E-score
CCAGCGTA	-0.178
CCCTTGGA	-0.0534
ACTGAAAG	-0.0295
GGTGTCCA	0.236
GCGTTTCA	-0.0887
GTGGTTCA	-0.0637
ACCTTGAT	0.0821
TGATGTAA	0.0738
AATGAGAC	-0.149
TCAACCAA	-0.131
AAGCTGCG	0.15
CGGGCATA	-0.232
CGTTTGGA	0.109
CTTTGGCC	0.0991
TAACCGGA	0.23
CACTACAC	0.225
AGTCTGTG	-0.266
ACCTCTGC	-0.0524
GGACGTGA	-0.189

Reference: the supplement of paper PMC3334620
